Reference: PubChem BioAssay AID1508624 (National Center for Advancing Translational Sciences (NCATS), 2021)
In all, about 48,000 compounds went through this assay and about 120 (0.25%) were called active. Roughly 4% stayed inconclusive and do not appear here. Calls come from the whole dose curve; as a rule, active = well fitted activation curve with a large enough effect; inconclusive = small, poorly fitted or top-dose-only effect, or another doubt; inactive = no such curve, though single readings can be large or run the other way. The list shows a part of the results.

assay: Primary qHTS for Identification of Small Molecule Activators of Huntingtin-Antisense Promoter Activity; conditions: HEK293 HTT-AS promoter firefly luciferase reporter, 24 h; series mostly up to 57.5 µM; activity change, positive = activation: at the top concentration; note: nearly all actives have a fitted effect of over 55% in size
In short: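 Firefly luciferase readout (Dual-Glo, 10 min RT) after 24 h, 37 °C compound exposure (final up to 57.5 uM) of HEK293 reporter cells cultured 24 h beforehand; PTC124 at 50 uM final as control inhibitor; activity scaled vehicle 0%, zero RLU -100%.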

Activity change, positive = activation, inactive:
COc1ccccc1CNC(=O)C(=O)NCC(c1ccco1)S(=O)(=O)c1ccc(C)cc1 (configuration not stated) -14.4%, CCCCCn1c(CCCNC(=O)c2ccc(Cl)cc2)nc2ccccc21 -27.1%, COc1ccc(CNC(=O)CCc2nnc3n(C)c(=O)c4sccc4n23)cc1 -8.22%, COc1ccc(-c2nc(C(=O)Nc3cccc(C(C)=O)c3)nn2-c2ccccc2Cl)cc1 -29.5%, CCOc1cc(-c2nc(-c3ccc(-c4ccccc4)nc3OCC)no2)cc(OCC)c1OCC -5.92%, COc1cc(OC)c(NC(=O)c2cnn(-c3ccccc3)c2-n2cccc2)cc1Cl -13.4%, O=C(CSc1nccn1Cc1ccc(Cl)cc1)Nc1nc2ccccc2s1 -2.62%, COCCCNC(=O)c1cc2c(-c3cccc(OC)c3)nn(C)c2s1 -19%, CCC(=O)N1CCc2cc(Br)cc(S(=O)(=O)Nc3ccccc3C(=O)OC)c21 -7.43%, Cc1ccccc1CCNC(=O)c1ccc(Cn2c(=O)c3cccn3c3cccnc32)cc1 -31.8%, CCOC(=O)[C@H](CCc1ccccc1)N[C@H]1CS[C@H](c2cccs2)CN(CC(=O)O)C1=O, CCc1ccc(NC(=O)c2cc(S(=O)(=O)N3CCCC(C)C3)cn2C)cc1 (configuration not stated) -24%, CCOc1ccc(CNC(=O)C2CCN(C(=O)c3ccc(-n4ccc5ccccc54)s3)CC2)cc1 -22.3%, CCOc1ccc(Nc2cc(C(=O)NCc3ccccc3Cl)c3ccccc3n2)cc1 -14.3%, Cc1cccc(NC(=O)Cn2c(=O)n(CCCCCC(=O)NCc3ccccc3)c(=O)c3sccc32)c1 -18.8%, CCOC(=O)N1CCN(C(=O)c2ccc3c(c2)N(Cc2ccccc2F)C(=O)c2ccccc2S3(=O)=O)CC1 -19.5%, CCc1ccc(NC(=O)CSc2nc3c(c(=O)[nH]2)CN(Cc2ccc4c(c2)OCO4)CC3)cc1 0%, O=C(COc1ccccc1)NCC(c1ccc(Cl)cc1)N1CCCCC1 (configuration not stated) -14.5%, Cc1ccc(C)c(N2CCN(S(=O)(=O)c3c(C(=O)N4CCC(C)CC4)c(C)n(C)c3C)CC2)c1 -23.9%, O=C(CCCc1ccccc1)NC1CC(=O)N(c2cccc(F)c2)C1 (configuration not stated) -10.3%, O=C(Nc1ccc(Br)c(Cl)c1)c1ccc(C(=O)Nc2ccc(Br)c(Cl)c2)cc1 -16%, CCOC(=O)c1cc2c(=O)n3ccccc3nc2n(C)c1=NC(=O)c1c(-c2c(F)cccc2Cl)noc1C 7.01%, Cc1ccc(C)c(NC(=O)C2CCN(S(=O)(=O)c3c(C)noc3/C=C/c3cccs3)CC2)c1 -24.2%, Cc1sc2c(c1C)c(=O)n(CCc1ccccc1)c(=O)n2Cc1ccc(C(C)(C)C)cc1 8.64%, CCn1c(CNC(=O)c2ccc(OC)cc2)nnc1SCC(=O)Nc1cc(C)ccc1C -23.4%, COc1ccccc1C(=O)NCc1nc2cccnc2n1Cc1ccc(F)cc1 -7.13%, COc1ccc(Cl)cc1NC(=O)CSc1nccn1-c1ccc(Cl)cc1 -31.5%, CCOCN(C(=O)Cn1c(COC)nc2ccccc21)c1c(C)cccc1CC -6%, COc1ccc(S(=O)(=O)N2Cc3ccccc3CC2C(=O)Nc2cc(Cl)ccc2Cl)cc1 (configuration not stated) -27.3%, Cc1ccc(C)c(N2CCN(C(=O)c3cc(C)nc4c3c(C)nn4-c3ccccc3)CC2)c1 -20.9%, COc1cc(CN(C(=O)COc2ccc(F)cc2)c2ccccn2)cc(OC)c1OC -18.9%, CCOc1ccc(OCC(=O)Nc2ccc(S(=O)(=O)Nc3cc(C)on3)cc2)cc1 -5.76%, COc1cc(NC(=O)CCN2CCN(CCO)CC2)cc(OC)c1 13.7%, CCc1nn(CC(=O)NCCc2ccc(SC)cc2)c(=O)c2cc3sccc3n12 -15.9%, CCCc1cc(=O)n2[nH]c(NCc3c(F)cccc3Cl)nc2n1 2.62%, COc1ccc(N2CCN(S(=O)(=O)c3ccc4c(c3)C(C(C)C)C(=O)N4)CC2)cc1 (configuration not stated) -31.1%, Cc1nc2cc(-c3cccc(F)c3)nn2c(C)c1CCC(=O)NCCc1ccccc1 -61.8%, Cc1ccc(NC(=O)c2ccc(=O)n(CC(=O)Nc3ccccc3)n2)cc1 -10.2%, Cn1c(=O)c2sccc2n2c(CCCC(=O)Nc3ccc(Oc4ccccc4)cc3)nnc12 -34.1%, CCOC(=O)COc1ccc(-c2nnn(CC(=O)Nc3ccccc3)n2)cc1 3.09%, Cc1ccc(NC(=O)CN2C=NS(=O)(=O)c3ccccc32)cc1 3.06%, COc1ccc(-c2noc(CC(=O)N(C)c3cccc(C)c3)n2)cc1 -15.3%, CCOC(=O)COc1ccc(CC)cc1C(=O)c1ccn2nc(-c3ccc(F)cc3)cc2n1 -11.4%, CCOC(=O)c1cnc2ccc(Br)cc2c1NCCN1CCOCC1 -22.5%, O=C(Nc1ccc2c(c1)CCCN2C(=O)c1cccs1)c1ccc(F)c(F)c1 -23.8%, COc1ccc(C(=O)c2cn(Cc3ccccc3F)c3cc4c(cc3c2=O)OCCO4)cc1OC -8.09%, COc1ccc(Cl)cc1S(=O)(=O)Nc1ccc2[nH]c(=O)[nH]c2c1 10.8%, Cc1ccc(N2CC(NC(=O)c3ccccc3C(F)(F)F)CC2=O)cc1C (configuration not stated) -4.9%, CCc1ccc(S(=O)(=O)c2cn(Cc3ccccc3)c3cc(N4CCCC4)c(F)cc3c2=O)cc1 -10%, Cc1ccc(Cl)cc1N1CCN(C(=O)CCS(=O)(=O)c2cc(Br)cc3c2N(C(=O)C2CC2)CC3)CC1 -17.4%, COc1ccc(NC(=O)CSc2oc(-c3cccs3)nc2S(=O)(=O)c2ccccc2)c(OC)c1 -18.5%, O=C(Nc1ccc(C(=O)OCc2cc(=O)n3nc(C4CC4)sc3n2)cc1)c1ccccc1 8.1%, Cc1cccc(CNC(=O)c2cc3cc(S(=O)(=O)N4CCCCC4)ccc3n2C)c1 -34.9%, Cc1ccc(CCNC(=O)Cn2c(-c3cccs3)cc3ccccc32)cc1 -24.5%, COc1ccc(C(=O)NCCn2cc(SCc3ccc(C(F)(F)F)cc3)c3ccccc32)cc1OC -59.7%, O=C(Nc1ccc(Oc2ccc(Cl)cc2)c(Cl)c1)c1cc(I)cc(I)c1O -93.3%, COc1cccc(CNC(=O)C2CCCN(S(=O)(=O)N(C)c3ccc(F)cc3)C2)c1OC (configuration not stated) -90.5%, Cc1cccc(NC(=O)CSC2=Nc3ccccc3C3=NC(CC(=O)NCc4cccs4)C(=O)N23)c1 (configuration not stated) -5.04%, COc1ccccc1/C=C/c1nc(C#N)c(NC2CCCCC2)o1 9.76%, COc1ccc(CNC(=O)CCCn2nc(C)n3c(cc4sccc43)c2=O)cc1 2.77%, COCCn1c(C)cc(O)c(C(c2ccccc2OC)N2CCN(c3ccccc3)CC2)c1=O (configuration not stated) 3.14%, Cc1cc(C)c2c(=O)cc(C(=O)Nc3sc4c(c3C(=O)NCc3cccnc3)CCCC4)oc2c1 -1.79%, CCC(Sc1nc2nccnc2c(=O)n1Cc1ccc(OC)cc1)C(=O)NC1CCCCC1 (configuration not stated) -12.8%, CCOc1ccccc1CNC(=O)c1ccc2c(c1)sc1nc(-c3cccc(OC)c3)cn12 27.9%, CC(C)n1c(SCC(=O)Nc2ccc(F)cc2)nc2c(oc3ccccc32)c1=O 3.68%, CC(C)C12CN3CC(C(C)C)(CN(C1)C3c1ccc(OCc3ccccc3)cc1)C2=O (configuration not stated) 15%, COC(=O)c1cc(S(=O)(=O)NCC2CCN(Cc3ccc(C)cc3)CC2)c[nH]1 -12.4%, CC(=O)c1cccc(NC(=O)c2ccc(-n3c(C)nnc3C)cc2)c1 -7.02% [at 11.5 µM, percent change from vehicle, -100% = no light], CCOc1ccc(-n2c(SCC(=O)Nc3ccc(F)cc3)nc3c([nH]c4ccccc43)c2=O)cc1 -23.1%, Cc1ccc2c(c1)N(C(=O)N1CCC(C(=O)NC3CCCCCC3)CC1)CC(C)O2 (configuration not stated) 16.7%, COc1cc(NC(=O)Cc2c(C(=O)O)c(C)cn2C)cc(OC)c1 -17%, COc1ccc(/C=C/C(=O)Nc2sc3c(c2C(N)=O)CCC(C)C3)cc1OC (configuration not stated) -7.59%, CCOC(=O)c1c(NC(=O)c2cc(C)on2)sc(C)c1C -3.01%, CCOc1ccc(NC(=O)CCS(=O)(=O)c2cccc3nonc23)cc1 25.3%, CCc1cccc(NC(=O)CSc2ncccc2C(=O)Oc2ccccc2Cl)c1 -26.3%, CNC(=O)c1c[nH]c2ccc(S(=O)(=O)Nc3cccc(Cl)c3C)cc2c1=O -49.6%, Cc1cc(C)cc(OCc2ccc(C(=O)Nc3ccccc3F)o2)c1 24%, COc1ccc(CNC(=O)CCC(=O)N2CC3CCCN3c3ccccc32)c(OC)c1 (configuration not stated) -8.04%, Cc1ccc(C2=CC(c3c(F)cccc3Cl)n3ncnc3N2)cc1C (configuration not stated) -10.5%, Cc1cc(C)cc(NC(=O)C2CCCN2S(=O)(=O)c2cccc3nsnc23)c1 (configuration not stated) 0.25% [at 11.5 µM, percent change from vehicle, -100% = no light], CCn1c(-c2ccc(S(=O)(=O)N3CCOCC3)cc2)csc1=Nc1ccc(C)c(Cl)c1 -9.15%, Cc1ccc(C(=O)n2nc(C)c(S(=O)(=O)N3CCCCCC3)c2C)cc1 -12.8%, CCOC(=O)c1ccc(CN(Cc2ccccc2C)S(=O)(=O)c2ccc(C(C)(C)C)cc2)cc1 -16.1%, COc1cccc(C2C(C(=O)Nc3ccccc3)=C(C)Nc3nc(-c4ccccc4)nn32)c1OC (configuration not stated) -24.1%, Cc1cccc(-c2noc(-c3ccc(N4CCN(C)CC4)c([N+](=O)[O-])c3)n2)c1 -72.8%, COc1ccc(C)cc1NC(=O)c1ccc2c(c1)CCN2S(=O)(=O)c1ccc(Cl)cc1 -0.52%, Cc1ccc(C)c(CN2CCC(CNC(=O)c3cc4ccc5cccnc5c4[nH]3)CC2)c1 -13.8%, COc1ccc(CNc2nc3c(c(=O)n(C)c(=O)n3C)n2Cc2ccccc2Cl)cc1 0.936%, CC(C)(C)OC(=O)N1CCC(c2nnc(SCc3ccccc3)o2)CC1 -24.4%, Cc1cc(NC(=O)COc2ccccc2)cc(-c2nc3ccccc3o2)c1O -7.85%, COc1ccc(-c2noc(-c3ccc(N4CCCCC4C)c([N+](=O)[O-])c3)n2)cc1OC (configuration not stated) -9.53%, COc1ccccc1CNC(=O)c1ccc(N2Cc3cccc(OC)c3Oc3ncccc32)s1 -8.33%
